Consider four compounds from PubChem BioAssay AID1845209 (Molecular Pharmacology Branch, DTP, NCI, 2023).

Not every entry of the source has a single result; some have several. Only these are listed. The source may hold further records. The records of an entry are repeated measurements (runs, samples, wells, individuals or studies). Additions like (4×) give the number of equal values in this list. Dates in brackets are months of testing.

The test system of the assay is NCI-H211 tumor spheroids, viability percent test/control. As to the kind of experiment: Anticancer human tumor NCI-H211 cell line growth inhibition.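 For all read-outs here: spheroids exposed to agents for seven days before readout.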 The following applies: spheroids with HUVEC and MSC; for viability, T/C: stronger effect = lower value. An excerpt: Multicellular complex tumor spheroid response to DNA repair inhibitors in combination with DNA-damaging drugs
This study explores the anticancer activities of DNA-damaging drugs and inhibitors of DNA damage repair, both as single agents and in combinations. Complex tumor spheroids comprised of malignant cells, endothelial cells and mesenchymal stem cells served as an in vitro model for human solid tumors. This model system incorporates physiologically relevant features and patient-derived or established malignant cell lines with clinically relevant genetic alterations from many tumor types. Twenty-six patient-derived or established malignant cell lines were evaluated representing sarcoma, melanoma, small cell lung cancer (SCLC), non-small cell lung cancer (NSCLC), as well as bladder, ovarian and pancreatic cancers. The concentration ranges selected for each drug and investigational agent were based upon clinically achievable concentrations if the clinical Cmax of the agent was known.
Compounds. The drugs and compounds olaparib (NSC753686), talazoparib (NSC767125), berzosertib (NSC777718), elimusertib (NSC800525), nedisertib (NSC802822), VX-984 (NSC792969), AZD-1390 (NSC803789), temozolomide (NSC362856), topotecan (NSC609699), trabectedin (NSC813783), staurosporine (NSC755774), and gemcitabine (NSC613327) were obtained from the National Cancer Institute (NCI) Developmental Therapeutics Program Chemical Repository. The FDA-approved anticancer drug set is available from the Developmental Therapeutics Program at https://dtp.cancer.gov/organization/dscb/obtaining/available_plates.htm. […] The stock solutions were prepared in dimethyl sulfoxide (DMSO, Sigma-Aldrich, St. Louis, MO, cat. D2650) at 400-fold the tested concentration and stored at -70 degrees C. Prior to their use, the stock solutions were diluted in fresh medium and the final DMSO concentration in the assay was 0.25% (v/v). All drugs and investigational agents were tested over a range starting from a high concentration at or near the clinical Cmax and decreasing in half-log increments. If the clinical Cmax for an agent had not been determined, the highest concentration tested was 10 microM.
Cell Lines. The patient-derived cancer cell (PDC) lines: 156681-154-R-J1-PDC, 283228-195-R-J1-PDC, 287954-098-R-J1-PDC, 292921-168-R-J2-PDC, 349418-098-R-PDC, 425362-245-T-J1-PDC, 556581-035-R-J1-PDC, and BL0293-F563-PDC were received from the NCI Patient-Derived Models Repository (PDMR, https://pdmr.cancer.gov). The established cell lines HS-SY-2 (RRID:CVCL_8719), MPNST, and SYO-1 (RRID:CVCL_7146) were obtained from the Sloan Kettering Institute. The alveolar soft parts sarcoma cell line ASPS-1 (RRID:CVCL_S738) was established at the NCI and grown from internal seed stocks. The following established cell lines were purchased from the American Type Culture Collection (ATCC, Manassas, VA): G-401 (ATCC, cat. CRL-1441, RRID:CVCL_0270), SW982 (ATCC, cat. HTB-93, RRID:CVCL_1734), VA-ES-BJ (ATCC, cat. CRL-2138, RRID:CVCL_1785), NCI-H719 (ATCC, cat. CRL-5837, RRID:CVCL_1582), NCI-H196 (ATCC, cat. CRL-5823, RRID:CVCL_1509), NCI-H841 (ATCC, cat. CRL-5845, RRID:CVCL_1595), NCI-H1618 (ATCC, cat. CRL-5879, RRID:CVCL_1480), NCI-H1876 (ATCC, cat. CRL-5902, RRID:CVCL_1503), DMS 114 (ATCC, cat. CRL-2066; RRID:CVCL_1174), NCI-H211 (ATCC, cat. CRL-5824; RRID:CVCL_1529), and SW 1271 (ATCC, cat. CRL-2177, RRID:CVCL_1716). The small cell lung cancer cell line COR-L88 was purchased from Sigma-Aldrich (cat. 92031917-1VL, RRID:CVCL_1141). The non-small cell lung cancer cell lines NCI-H226 (RRID:CVCL_1544) and NCI-H322M (RRID:CVCL_1557) were established at the NCI and grown from internal seed stocks. Pooled donor human umbilical vein endothelial cells (HUVEC, Lonza, cat. CC-2519) and human mesenchymal stem cells (hMSC, Lonza, cat. PT-2501) were purchased from Lonza (Walkersville, MD).
Cell Culture. All cells were maintained in an incubator at 37 degrees C and 5% CO2 with 95% humidity. […]

For `CC[C@@]1(O)C(=O)OCc2c1cc1n(c2=O)Cc2cc3c(CN(C)C)c(O)ccc3nc2-1`, the viability, T/C (compound alone 0.003 µM) was 84.7, 79.6, 72.2, 76.6, 82.7% [2019-11] and 65.5, 102 (2×), 99.9, 101% [2019-12].
For the compound `Cn1nnc2c(C(N)=O)ncn2c1=O`, the viability, T/C (compound alone 3.16 µM) is reported as 99.8, 124, 106, 101, 99.4, 109, 113, 99.6, 97.2, 86.8%; the viability, T/C (compound alone 31.6 µM) was 64.6, 73.1, 62.4, 60.6, 63.8, 47.8, 1.32, 64.7, 44.8, 38.1%; the viability, T/C (compound alone 100 µM) was 21, 33.2, 30.4, 31.8, 33.5, 30.1, 0.89, 27.3, 21.5, 13.8%. For the same compound, where the note is “compound alone, run of 11/07/2019”, the IC50 is 43.5, 60.6, 48.8, 48.7, 53.3, 30, 16.3, 49.7, 28.1, 22.5 µM.
Turning to `COc1cc2c(cc1O)CCNC21CSC2c3c(OC(C)=O)c(C)c4c(c3C(COC1=O)N1C(O)C3Cc5cc(C)c(OC)c(O)c5C(C21)N3C)OCO4` (configuration not stated), where the note is “compound 30 pM”, the viability, T/C is 104 (2×), 113, 108, 100, 86.9, 105 (2×), 98.8, 59.9%.
For `CC1COCCN1c1cc(-c2ccnn2C)c2ccnc(-c3ccn[nH]3)c2n1` (configuration not stated), the viability, T/C (compound alone 0.0316 µM) was 19.6% [2019-11] and 46.5%, 8.03% [2019-12].
